Assay results as given in the antibiotic and cytotoxicity screens of Wong et al. (2023).
Some of the results follow.

How the values were obtained:
HSkMC = human skeletal muscle cells; experiment: cytotoxicity call (relative viability < 0.9); details: 10 µM
HepG2 = experiment: cytotoxicity call (relative viability < 0.9); details: 10 µM
S. aureus RN4220 = experiment: growth inhibition call (relative growth <= 0.2); details: 50 µM

Structure (SMILES)	cytotoxicity call (HSkMC)	cytotoxicity call (HepG2)	growth inhibition call (S. aureus RN4220)
O=C(C[C@H]1C=C[C@@H](NC(=O)c2cccnc2)[C@H](CO)O1)NCc1ccncn1	inactive	inactive	inactive
CCN1CCCC1CNC(=O)c1cc(S(=O)(=O)CC)c(N)cc1OC (centres undefined)	inactive	active	inactive
C[C@@H]1CN([C@H](C)CO)C(=O)Cc2cc(NC(=O)Cc3cn(C)c4ccccc34)ccc2O[C@H]1CN(C)C(=O)Nc1cccc2ccccc12	inactive	inactive	inactive
C[C@H](CO)N1C[C@H](C)[C@@H](CN(C)C(=O)Nc2cccc3ccccc23)Oc2c(NC(=O)Nc3ccc(F)cc3)cccc2C1=O	inactive	inactive	inactive
C[C@@H]1CCCCO[C@@H](CN(C)S(=O)(=O)c2cccs2)[C@H](C)CN([C@@H](C)CO)C(=O)c2cc(NC(=O)Nc3cccc4ccccc34)ccc2O1	inactive	inactive	inactive
O=C(C[C@@H]1C=C[C@@H](NC(=O)c2cccnc2)[C@@H](CO)O1)NCCN1CCCCC1	inactive	inactive	inactive
C[C@H](CO)N1C[C@H](C)[C@H](CN(C)C(=O)NC2CCCCC2)Oc2ccc(NS(=O)(=O)c3cn(C)cn3)cc2C1=O	inactive	inactive	inactive
C[C@@H]1CCCCO[C@H](CN(C)C(=O)Nc2ccccc2)[C@@H](C)CN([C@H](C)CO)C(=O)c2cc(NS(=O)(=O)c3ccc(Cl)cc3)ccc2O1	inactive	inactive	inactive
CCC(=O)OC(OP(=O)(CCCCc1ccccc1)CC(=O)N1CC(C2CCCCC2)CC1C(=O)[O-])C(C)C.[Na+] (centres undefined)	inactive	inactive	inactive
COc1ccc(NC(=O)N(C)C[C@@H]2Oc3ccc(NS(=O)(=O)c4c(C)noc4C)cc3CC(=O)N([C@H](C)CO)C[C@@H]2C)cc1	inactive	inactive	inactive
C[C@@H]1CN([C@@H](C)CO)C(=O)c2cc(-c3cccnc3)cnc2O[C@@H]1CN(C)Cc1ccc(Oc2ccccc2)cc1	inactive	inactive	inactive
O=C(Nc1ccccc1)c1ccco1	inactive	inactive	inactive
C[C@@H]1CN([C@H](C)CO)C(=O)c2cc(NC(=O)NC3CCCCC3)ccc2O[C@@H]1CN(C)Cc1ccc(Oc2ccccc2)cc1	inactive	active	inactive
O[C@@H]1[C@@H](O)[C@H]2OC[C@@H](O2)[C@H]1O	inactive	inactive	inactive
Cc1ccc(S(=O)(=O)Nc2ccc3c(c2)C(=O)N([C@@H](C)CO)C[C@H](C)[C@@H](CN(C)S(=O)(=O)c2ccc(F)cc2)OCCCC[C@@H](C)O3)cc1	inactive	inactive	inactive
CC(C)Oc1cccc(CC(=O)N2CCC[C@](CC[N+]34CCC(c5ccccc5)(CC3)CC4)(c3ccc(Cl)c(Cl)c3)C2)c1	inactive	inactive	active
CC1CC(OC(=O)c2ccccc2O)CC(C)(C)C1 (centres undefined)	active	active	inactive

Structure (SMILES)	cytotoxicity call (HSkMC)	cytotoxicity call (HepG2)	growth inhibition call (S. aureus RN4220)
C[C@H]1CN([C@@H](C)CO)C(=O)Cc2cc(NS(=O)(=O)c3ccccc3)ccc2O[C@H]1CN(C)S(=O)(=O)c1cccs1	inactive	inactive	inactive
COC(=O)CNS(=O)(=O)c1ccsc1C(=O)OC	inactive	inactive	inactive
CN(c1c[nH]c(=O)[nH]c1=O)C1CCCCC1	inactive	inactive	inactive
C[C@@H]1CN([C@@H](C)CO)C(=O)c2cccc(NC(=O)Nc3cccc4ccccc34)c2O[C@H]1CN(C)C(=O)NC1CCCCC1	inactive	inactive	inactive
C[C@H](CO)N1C[C@H](C)[C@H](CN(C)Cc2ccc(Oc3ccccc3)cc2)Oc2c(NC(=O)c3ccc(-c4nccs4)cc3)cccc2C1=O	active	inactive	inactive
CO[C@@H]1CN(C)C(=O)c2cc(NS(C)(=O)=O)ccc2OC[C@H](C)N(C(=O)C2CCCCC2)C[C@H]1C	inactive	inactive	inactive
CCC1(O)C(=O)OCc2c1cc1n(c2=O)Cc2cc3c(CN(C)C)c(O)ccc3nc2-1.Cl (centres undefined)	inactive	active	inactive
COCC#Cc1cnc2c(c1)C(=O)N([C@@H](C)CO)C[C@@H](C)[C@@H](CN(C)C(=O)Nc1ccccc1OC)O2	inactive	inactive	inactive
O=C1CCC(C(=O)O)N1 (centres undefined)	inactive	inactive	inactive
COc1ccc(S(=O)(=O)Nc2ccc3c(c2)C(=O)N([C@H](C)CO)C[C@@H](C)[C@H](CN(C)S(=O)(=O)c2ccc(F)cc2)O3)cc1	inactive	inactive	inactive
COC(=O)C[C@@H]1CC[C@@H]2[C@H](COC[C@@H](O)CN2S(=O)(=O)c2cn(C)cn2)O1	inactive	inactive	inactive
Cc1noc(C)c1S(=O)(=O)N(C)C[C@H]1Oc2ccc(NC(=O)CCN3CCOCC3)cc2CC(=O)N([C@H](C)CO)C[C@@H]1C	inactive	inactive	inactive
Cn1nnc2c1[C@H](COCC1CC1)CNC2	inactive	inactive	inactive
COc1ccccc1S(=O)(=O)N(C)C[C@H]1OCc2cnnn2CCCC(=O)N([C@H](C)CO)C[C@@H]1C	inactive	inactive	inactive
C(=N\C1CCCCCCCCCCC1)/c1ccco1	inactive	inactive	inactive
COc1ccc(NC(=O)N(C)C[C@@H]2OCCCC[C@H](C)Oc3ccc(NC(=O)Nc4ccc(C(F)(F)F)cc4)cc3C(=O)N([C@@H](C)CO)C[C@@H]2C)cc1	inactive	inactive	inactive
